These results are taken from paper PMC6796834.

Sequences of proteins named here, by UniProt entry; tags and fusion partners are left off. A change or cut given only in a name is not applied to a line headed by its entry. Residues count along the entry.
UniProt P62068: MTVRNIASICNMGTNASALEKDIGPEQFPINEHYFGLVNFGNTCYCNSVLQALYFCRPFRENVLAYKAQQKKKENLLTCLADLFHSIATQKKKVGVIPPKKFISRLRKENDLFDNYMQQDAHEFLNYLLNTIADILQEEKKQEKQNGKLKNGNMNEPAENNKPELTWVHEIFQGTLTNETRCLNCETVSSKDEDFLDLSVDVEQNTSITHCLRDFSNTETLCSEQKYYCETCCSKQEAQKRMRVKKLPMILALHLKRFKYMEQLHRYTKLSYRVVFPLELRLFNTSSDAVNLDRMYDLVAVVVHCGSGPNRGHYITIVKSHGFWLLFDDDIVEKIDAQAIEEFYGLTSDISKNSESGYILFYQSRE
USP46 (in the crystallised USP46-WDR48-WDR20 complex): residues 24-366 of P62068
UniProt Q8TAF3: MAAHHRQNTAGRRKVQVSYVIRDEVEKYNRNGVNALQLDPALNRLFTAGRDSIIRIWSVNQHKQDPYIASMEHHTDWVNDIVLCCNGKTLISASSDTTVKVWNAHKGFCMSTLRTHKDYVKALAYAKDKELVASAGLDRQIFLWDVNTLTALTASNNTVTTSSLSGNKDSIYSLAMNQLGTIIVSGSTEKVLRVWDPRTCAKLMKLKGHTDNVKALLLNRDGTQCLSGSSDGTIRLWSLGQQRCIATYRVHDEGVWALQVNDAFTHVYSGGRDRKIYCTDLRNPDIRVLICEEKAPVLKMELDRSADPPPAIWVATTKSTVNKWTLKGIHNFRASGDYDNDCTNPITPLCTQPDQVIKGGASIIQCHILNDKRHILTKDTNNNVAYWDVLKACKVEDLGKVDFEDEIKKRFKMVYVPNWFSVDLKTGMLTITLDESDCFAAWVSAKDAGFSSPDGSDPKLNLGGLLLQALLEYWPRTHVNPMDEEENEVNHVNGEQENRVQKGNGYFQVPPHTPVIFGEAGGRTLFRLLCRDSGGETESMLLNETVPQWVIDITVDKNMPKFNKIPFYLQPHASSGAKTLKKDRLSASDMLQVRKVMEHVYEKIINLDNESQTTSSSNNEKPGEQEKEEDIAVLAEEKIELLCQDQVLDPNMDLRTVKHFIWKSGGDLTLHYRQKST

No constants are given. Whether binding was seen depends on the method and setting. For some assays here: Binding seen in cells or lysates may run through a third protein. Some entries that bind do so weakly or less than the wild type.

The target in test [1] is USP46 (in the crystallised USP46-WDR48-WDR20 complex) (UniProt P62068). In words: crystal structure; USP46-WDR48-WDR20 complex prepared and crystallised, 3.1 Å resolution, one complex per asymmetric unit; both purified.
Test [2] deals with E279R USP46 mutant (UniProt P62068). The test can be described thus: co-IP; Co-IP assay in 293T cells with WT and mutant USP46 (Fig. 1d) and WT and mutant WDR20 (Fig. 1e).
In test [3] the target is WT USP46 (Co-IP in 293T cells) (UniProt P62068). Described as above.
Test [4] has as its target E279R/D293R USP46 mutant (UniProt P62068). Described as above.
The target of test [5] is V275D/F283A USP46 mutant (UniProt P62068). Described as above.
For test [6], the target named is D293R USP46 mutant (UniProt P62068). The description is as above.
Test [7] concerns the target T347A/S348A USP46 mutant (UniProt P62068). Described as above.
Test [8] concerns the target E186K USP46 mutant (UniProt P62068). The test is described as above.
For test [9], the target named is WDR48 (in the crystallised USP46-WDR48-WDR20 complex) (UniProt Q8TAF3). The test can be described thus: crystal structure; USP46-WDR48-WDR20 complex prepared and crystallised, 3.1 Å resolution, one complex per asymmetric unit; both purified.

Regarding “WDR48 (in the crystallised USP46-WDR48-WDR20 complex) (from UniProt Q8TAF3 1-580)”, the binding result in test [1] is “binds”.

In the case of “WDR48 (Co-IP in 293T cells) (from UniProt Q8TAF3 1-677)”, the binding entry in [2], in test [3], in test [4], in test [5], in test [6] and in test [7] was “binds” in each case. The binding result in test [8] was “no binding”.

B1: WT WDR20 (Co-IP in 293T cells) (protein, UniProt Q8TBZ3 1-569)
chain: MATEGGGKEMNEIKTQFTTREGLYKLLPHSEYSRPNRVPFNSQGSNPVRVSFVNLNDQSGNGDRLCFNVGRELYFYIYKGVRKAADLSKPIDKRIYKGTQPTCHDFNHLTATAESVSLLVGFSAGQVQLIDPIKKETSKLFNEERLIDKSRVTCVKWVPGSESLFLVAHSSGNMYLYNVEHTCGTTAPHYQLLKQGESFAVHTCKSKSTRNPLLKWTVGEGALNEFAFSPDGKFLACVSQDGFLRVFNFDSVELHGTMKSYFGGLLCVCWSPDGKYIVTGGEDDLVTVWSFVDCRVIARGHGHKSWVSVVAFDPYTTSVEEGDPMEFSGSDEDFQDLLHFGRDRANSTQSRLSKRNSTDSRPVSVTYRFGSVGQDTQLCLWDLTEDILFPHQPLSRARTHTNVMNATSPPAGSNGNSVTTPGNSVPPPLPRSNSLPHSAVSNAGSKSSVMDGAIASGVSKFATLSLHDRKERHHEKDHKRNHSMGHISSKSSDKLNLVTKTKTDPAKTLGTPLCPRMEDVPLLEPLICKKIAHERLTVLIFLEDCIVTACQEGFICTWGRPGKVVSFNP
For B1, the binding result is “binds” in test [2]; “binds” in test [3]; “binds” in [4]; “no binding” in [5]; “binds” in [6]; “binds” in [7]. For the same molecule, the binding entry in test [8] was “binds”.

B2: WDR20 (in the crystallised USP46-WDR48-WDR20 complex) (protein, UniProt Q8TBZ3 1-569)
chain: MATEGGGKEMNEIKTQFTTREGLYKLLPHSEYSRPNRVPFNSQGSNPVRVSFVNLNDQSGNGDRLCFNVGRELYFYIYKGVRKAADLSKPIDKRIYKGTQPTCHDFNHLTATAESVSLLVGFSAGQVQLIDPIKKETSKLFNEERLIDKSRVTCVKWVPGSESLFLVAHSSGNMYLYNVEHTCGTTAPHYQLLKQGESFAVHTCKSKSTRNPLLKWTVGEGALNEFAFSPDGKFLACVSQDGFLRVFNFDSVELHGTMKSYFGGLLCVCWSPDGKYIVTGGEDDLVTVWSFVDCRVIARGHGHKSWVSVVAFDPYTTSVEEGDPMEFSGSDEDFQDLLHFGRDRANSTQSRLSKRNSTDSRPVSVTYRFGSVGQDTQLCLWDLTEDILFPHQPLSRARTHTNVMNATSPPAGSNGNSVTTPGNSVPPPLPRSNSLPHSAVSNAGSKSSVMDGAIASGVSKFATLSLHDRKERHHEKDHKRNHSMGHISSKSSDKLNLVTKTKTDPAKTLGTPLCPRMEDVPLLEPLICKKIAHERLTVLIFLEDCIVTACQEGFICTWGRPGKVVSFNP
For B2, the binding result in test [1] and in test [9] was “binds” each time.

B3: N41A/E534A WDR20 mutant (protein, UniProt Q8TBZ3 1-569)
chain: MATEGGGKEMNEIKTQFTTREGLYKLLPHSEYSRPNRVPFASQGSNPVRVSFVNLNDQSGNGDRLCFNVGRELYFYIYKGVRKAADLSKPIDKRIYKGTQPTCHDFNHLTATAESVSLLVGFSAGQVQLIDPIKKETSKLFNEERLIDKSRVTCVKWVPGSESLFLVAHSSGNMYLYNVEHTCGTTAPHYQLLKQGESFAVHTCKSKSTRNPLLKWTVGEGALNEFAFSPDGKFLACVSQDGFLRVFNFDSVELHGTMKSYFGGLLCVCWSPDGKYIVTGGEDDLVTVWSFVDCRVIARGHGHKSWVSVVAFDPYTTSVEEGDPMEFSGSDEDFQDLLHFGRDRANSTQSRLSKRNSTDSRPVSVTYRFGSVGQDTQLCLWDLTEDILFPHQPLSRARTHTNVMNATSPPAGSNGNSVTTPGNSVPPPLPRSNSLPHSAVSNAGSKSSVMDGAIASGVSKFATLSLHDRKERHHEKDHKRNHSMGHISSKSSDKLNLVTKTKTDPAKTLGTPLCPRMEDVPLLEPLICKKIAHARLTVLIFLEDCIVTACQEGFICTWGRPGKVVSFNP
Regarding B3, the binding result in test [3] is on record as “binds”.

B4: N41A WDR20 mutant (protein, UniProt Q8TBZ3 1-569)
chain: MATEGGGKEMNEIKTQFTTREGLYKLLPHSEYSRPNRVPFASQGSNPVRVSFVNLNDQSGNGDRLCFNVGRELYFYIYKGVRKAADLSKPIDKRIYKGTQPTCHDFNHLTATAESVSLLVGFSAGQVQLIDPIKKETSKLFNEERLIDKSRVTCVKWVPGSESLFLVAHSSGNMYLYNVEHTCGTTAPHYQLLKQGESFAVHTCKSKSTRNPLLKWTVGEGALNEFAFSPDGKFLACVSQDGFLRVFNFDSVELHGTMKSYFGGLLCVCWSPDGKYIVTGGEDDLVTVWSFVDCRVIARGHGHKSWVSVVAFDPYTTSVEEGDPMEFSGSDEDFQDLLHFGRDRANSTQSRLSKRNSTDSRPVSVTYRFGSVGQDTQLCLWDLTEDILFPHQPLSRARTHTNVMNATSPPAGSNGNSVTTPGNSVPPPLPRSNSLPHSAVSNAGSKSSVMDGAIASGVSKFATLSLHDRKERHHEKDHKRNHSMGHISSKSSDKLNLVTKTKTDPAKTLGTPLCPRMEDVPLLEPLICKKIAHERLTVLIFLEDCIVTACQEGFICTWGRPGKVVSFNP
Take B4: the binding result in [3] is on record as “binds”.

B5: E534A WDR20 mutant (protein, UniProt Q8TBZ3 1-569)
chain: MATEGGGKEMNEIKTQFTTREGLYKLLPHSEYSRPNRVPFNSQGSNPVRVSFVNLNDQSGNGDRLCFNVGRELYFYIYKGVRKAADLSKPIDKRIYKGTQPTCHDFNHLTATAESVSLLVGFSAGQVQLIDPIKKETSKLFNEERLIDKSRVTCVKWVPGSESLFLVAHSSGNMYLYNVEHTCGTTAPHYQLLKQGESFAVHTCKSKSTRNPLLKWTVGEGALNEFAFSPDGKFLACVSQDGFLRVFNFDSVELHGTMKSYFGGLLCVCWSPDGKYIVTGGEDDLVTVWSFVDCRVIARGHGHKSWVSVVAFDPYTTSVEEGDPMEFSGSDEDFQDLLHFGRDRANSTQSRLSKRNSTDSRPVSVTYRFGSVGQDTQLCLWDLTEDILFPHQPLSRARTHTNVMNATSPPAGSNGNSVTTPGNSVPPPLPRSNSLPHSAVSNAGSKSSVMDGAIASGVSKFATLSLHDRKERHHEKDHKRNHSMGHISSKSSDKLNLVTKTKTDPAKTLGTPLCPRMEDVPLLEPLICKKIAHARLTVLIFLEDCIVTACQEGFICTWGRPGKVVSFNP
B5: the binding entry in test [3] is reported as “binds”.
